Data on 22 molecules can be found in PMC12136788.

T1: UNK ZnF1-3 (human, UniProt Q9C0B0 31-174)
T1 sequence: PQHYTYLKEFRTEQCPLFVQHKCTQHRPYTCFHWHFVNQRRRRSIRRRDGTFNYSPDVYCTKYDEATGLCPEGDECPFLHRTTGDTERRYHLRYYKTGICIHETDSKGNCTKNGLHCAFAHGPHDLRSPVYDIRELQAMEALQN

B1: chr6:114281168:114281169:-_ENSG00000196591_ENST00000368632|hu_hu|hu_hu_hu_mus_True|78_88 (ssRNA)
RNA: GGGAGUUCUACAGUCCGACGAUCUUCCAUUUUUCGGUAUAAACCAUAAUUUAACAGCAAGUUAUGGGUCAUCCGGAUUCUAUGAGGCUUCAUGGGAUGACCCUGGCCAUAAUAAUAAUUGCCAAUAUCACCAUCAUAGUAGUACAACAGAGGAUUGAGCAUCA
B2: chr7:149068622:149068623:-_ENSMUSG00000025139_ENSMUST00000001950|mus_hu|mus_mus_mus_hu_False|8_98 (ssRNA)
RNA: GGGAGUUCUACAGUCCGACGAUCGUGAGGCCUCUGAGUGAGGUUCCUGGUCUGUCCUGGGUUAGAGUUGUUAAUAUCACGGAACAUACCAUCUAGAACGUUCCAGUCCCGCCUGACACCUUCAUUCGCAAGAGGGCAGAAAUCCAACAGAGGAUUGAGCAUCA
B3: chr3:197553776:197553777:+_ENSG00000186001_ENST00000438796|hu_hu|FALSE|FALSE (ssRNA)
RNA: GGGAGUUCUACAGUCCGACGAUCGCAUGAGAAGUCUAACCGUAUCAAAGGCAACUCCGCCAGCUCUUCAGGCAAAUGUACUAGGUGAUUUCUUCUUACAUUAAGGUCUCUCAAGGCCUCCAGGUUACCAAUUUGGGAAGGUAUCAACAGAGGAUUGAGCAUCA
B4: chr6:57672499:57672500:+_ENSMUSG00000062190_ENSMUST00000050077|mus_hu|FALSE|FALSE (ssRNA)
RNA: GGGAGUUCUACAGUCCGACGAUCUCGGAGCAGGUAGGUUUGGUCACAUGUGACCCGGUACAACUGCAGGUACAAAAGGGCUAUGCCUGUCCAGCCAGUAUAAGCAGAGCAGUCAUGGGGAUCAGCUGUCUUCAGCCCUUCUUCCAACAGAGGAUUGAGCAUCA
B5: chr8:95500983:95500984:-_ENSG00000164944_ENST00000437199|hu_hu|motif|central (ssRNA)
RNA: GGGAGUUCUACAGUCCGACGAUCAAAAGGAUUUUUAUCGUGUAAAGGAGCGUACAUGACGACCUCUACCACUGCCUCCACGGACAAACUUUCCUCUUGAGCCUCCACUGCCGCUAUUUGCACUAGCCCAGGAAGGUCCAAGUCCAACAGAGGAUUGAGCAUCA
B6: chr1:60041781:60041782:+_ENSMUSG00000041040_ENSMUST00000036540|mus_hu|mus_mus_mus_hu_False|38_68 (ssRNA)
RNA: GGGAGUUCUACAGUCCGACGAUCAAGUUUACAAUAGUAAAGUAAAUGCAGUAGUGGCAAAUUUUCUUUACUUUAGUUUCACAAAAGAAAAUCUUUAGAUCUCAGUUCUAGUCUUGGACAUAGUGAAAGCUAUAAAUUCUGACUCAACAGAGGAUUGAGCAUCA
B7: 20712000_20712939_4853_CDS_ENSMUSG00000004099_ENSMUST00000004202|mouse|control|control (ssRNA)
RNA: GGGAGUUCUACAGUCCGACGAUCUGCAGCUGAUGCGCUCUCCCGAGCACUGGACAGCAGGCAGAGCUUAAUCUCCAGGCCAAUGGCUUUGGCCAGGGGUGGUGGCACAGCAUUACCCACCUGCCGGUGUCUGUCCAGGAUGUUCAACAGAGGAUUGAGCAUCA
B8: 193056109_193056229_3668_3pUTR_ENSG00000116747_ENST00000432079|human|control|control (ssRNA)
RNA: GGGAGUUCUACAGUCCGACGAUCAUUUCCUAAUAACUCAAUAAGGUAAAAGUCUUAAAUAAUUUUAUUUUAUCCUCUACUCUUCUGAGACCAUGUAUUCCCAUGUUGUGGGGAAAUAAAUUCUGGCACAGGAAUGAAGAGACCCAACAGAGGAUUGAGCAUCA
B9: chr9:59240146:59240147:-_ENSMUSG00000025234_ENSMUST00000171975|mus_hu|FALSE|FALSE (ssRNA)
RNA: GGGAGUUCUACAGUCCGACGAUCGGGGGAUUAGGUUGGGACAGGUUAAUUCAUGAGCUGUAGCAACAAAACUCCCUGCUGUACCCCUUAAUCAGGUCAUGGCAUUAGUCAGAGCUUGACCUCCCUUGUCCCUGAUCAAGAGCACAACAGAGGAUUGAGCAUCA
B10: chr15:100049815:100049816:+_ENSMUSG00000023026_ENSMUST00000100203|mus_mus|FALSE|FALSE (ssRNA)
RNA: GGGAGUUCUACAGUCCGACGAUCAAUGAGUUAAUAGAACACUGUCCAGCCAGAUGUUAAAUUUAAAAAUGUAUAUCUAACCUAAUUUCAAAUAAAUAAAAAAACCUUUAUACAUAAUUACACAGUACUAUAGUUUGAAUUGGACAACAGAGGAUUGAGCAUCA
B11: 18845624_18845744_8819_CDS_ENSG00000157106_ENST00000446231|human|control|control (ssRNA)
RNA: GGGAGUUCUACAGUCCGACGAUCCAGUAACUGAACCAAGCAGGUGACGUUUCCGCUCAUACUGCAGAGUUCCUCCAAGAACCAGGCUCCAUCCCGAGAAGUCAGAUCAACCAGCUGUUCUCCAGCACUUGACGCUGCACCUUCCAACAGAGGAUUGAGCAUCA
B12: chr18:34933064:34933065:+_ENSMUSG00000034300_ENSMUST00000097622|mus_hu|FALSE|FALSE (ssRNA)
RNA: GGGAGUUCUACAGUCCGACGAUCUGGCCAACCACACUACACACACAGCACAGAUGCAGACAUUGACCCAGUGUCAGCCACAUGCCCUGGAGGUGUGCUCCACUCUGGGUAAGCCCAAUAUGUGAAAAUUCAAAUAGUCAAAACCAACAGAGGAUUGAGCAUCA
B13: chr11:68582865:68582866:-_ENSG00000110090_ENST00000265641|hu_mus|FALSE|FALSE (ssRNA)
RNA: GGGAGUUCUACAGUCCGACGAUCCUUGAAUCGGAUGAACUUCUUCUUCCAGGAGUGCAGCCCUGACAGGCAGAUCUGUUUGAGGGCUUCAUGGCUCAGGCGGAGAUCGAUGCCAUCAGGGGUGACUGUGAACUGGAAGGCCACCAACAGAGGAUUGAGCAUCA
B14: 57990141_58003822_369_CDS_ENSG00000108443_ENST00000225577|human|control|control (ssRNA)
RNA: GGGAGUUCUACAGUCCGACGAUCAUCUUUAGCAUUUCUUACUAUCAUUGCCUUUUUAAGCACCUUCAUGGCAAAUAUUUUCCCAGUAUUUGCUCCUGUUACUUUUCGUACUUGAAAAACCUUUCCAUAGCCCCCUUUACCAAGCAACAGAGGAUUGAGCAUCA
B15: chr1:114133195:114133196:+_ENSG00000081026_ENST00000369615|hu_mus|motif|central (ssRNA)
RNA: GGGAGUUCUACAGUCCGACGAUCCAUUUCCCAGUUUUUGGGCAGCGGUUCCAGAUUCUCAUCUCUCAUCAUAUAAUUUCGGAAGUCCAUGGAGCUAUUUGUUUGGUUAUAACUUGGAACAGUCUUCAUCCAGCAGUCAGAUGUCAACAGAGGAUUGAGCAUCA
B16: chr4:47484081:47484082:-_ENSMUSG00000039740_ENSMUST00000044148|mus_hu|FALSE|FALSE (ssRNA)
RNA: GGGAGUUCUACAGUCCGACGAUCCAUUAUACUAUGAAGCCAAAUUAAUCAACUUUGAUAAUGAUACACACUUAAACUAUGAAAACCAAUUAAGGCACAGUAUCAUUCAAAAUUUAUAGACAGAAGAGCAAUAAUCCCGAGAAACAACAGAGGAUUGAGCAUCA
B17: chr15:83907240:83907241:-_ENSMUSG00000018865_ENSMUST00000082365|mus_hu|FALSE|FALSE (ssRNA)
RNA: GGGAGUUCUACAGUCCGACGAUCGUGGAAUUCAGCUCAAAUUCCGAGCGCAACUCGGUCCUUUGGUGGCCGACUCUCCACCCACUGCAUGCAAAUGCUCCUGACUGCAUUAGACUCCCACCUGCCAGCCUCACCAGGCAGACUCAACAGAGGAUUGAGCAUCA
B18: chr7:148783431:148783432:+_ENSMUSG00000002957_ENSMUST00000003038|mus_mus|FALSE|FALSE (ssRNA)
RNA: GGGAGUUCUACAGUCCGACGAUCGCUCAGAAGAUUCACAGCUUCCAUGUGUCCAAAGUCAAUGUCAUGACCAAGGAGAAAGAUGAAGAGCAAUUUGCAGACAUACUUCUUUUUACUGUAGCCAUCAAGAGCCUUGUCACCUUUCAACAGAGGAUUGAGCAUCA
B19: 130405211_130409398_3816_CDS_ENSG00000196455_ENST00000356763|human|control|control (ssRNA)
RNA: GGGAGUUCUACAGUCCGACGAUCAGAGUUGAAGUGAUGCAUAUCCACAACACAACCGUCCUCCUUCUGAUCUAGAAUUCUGCUUUGUAGAGGAUGGAUUUUAGGAGACUUGGGCAGCUUAGAAGCCUCAAUUCCAAGAAGCUGCAACAGAGGAUUGAGCAUCA
B20: chr9:96305504:96305505:+_ENSG00000048828_ENST00000277165|hu_mus|FALSE|FALSE (ssRNA)
RNA: GGGAGUUCUACAGUCCGACGAUCAGCUGCCCACUCCUUAAUGAUCAGUGGCGAGAAUUCUGGUGGAAGUCUGUUCUUUCUAAAAGCAAGUCUCUCAGUUUUCUUUCUGCUUUCUGCCAAACUAAACAGGACUCCGUAAACAUACAACAGAGGAUUGAGCAUCA
B21: chr2:84460416:84460417:-_ENSMUSG00000034101_ENSMUST00000111697|mus_hu|FALSE|FALSE (ssRNA)
RNA: GGGAGUUCUACAGUCCGACGAUCGCCACCUGGAUAACCAUCUUCAUAGUGGCGACUAUAACCAUCAGGAGGGUAGUGGAAGUUCCUAGGAAGGGUAGCAGUGCCAGCUUGCCCCACAUAGGGACCAGGUCCCCCAUUGCCAUUCAACAGAGGAUUGAGCAUCA
B22: chr1:80268134:80268135:-_ENSMUSG00000004364_ENSMUST00000163119|mus_mus|motif|central (ssRNA)
RNA: GGGAGUUCUACAGUCCGACGAUCGACUCUGUGUAGUUUAGAUGUGAAUUGAUCAUUAACUGUAAAUAUGUGGCCACUUUCGGUCUCCUUGGACUUGGGUUCUUUUGUGAGGACCCGCUGUGUUGGUUUACCACAGGCGAGGGACAACAGAGGAUUGAGCAUCA

Some of the results follow.

The test has as its target T1, UNK ZnF1-3. Kind of test: nsRBNS (natural sequence RNA bind-n-seq); RBNS binding buffer (assumed for nsRBNS): 25 mM Tris pH 7.5, 150 mM KCl, 3 mM MgCl2, 0.01% Triton X-100, 500 ug/ml BSA, 20 U/ml SUPERase-In, 4 C; UNK is unkempt and MSI1 is Musashi-1; names of the RNAs are library labels; protein concentration not given here; high values mean tight binding.
In turn, B1 registered a binding signal of 0.658 enrichment R.

As to B2, the binding signal stood at 0.851 enrichment R.

Regarding B3, the binding signal was determined as 0.733 enrichment R.

The molecule B4 yielded a binding signal of 0.866 enrichment R.

For B5, the binding signal amounted to 0.563 enrichment R.

B6 gave a binding signal of 0.473 enrichment R.

With B7, the binding signal turned out to be 0.683 enrichment R.

For the molecule B8, the binding signal turned out to be 0.936 enrichment R.

Consider B9, for which the binding signal came out at 0.931 enrichment R.

In turn, B10 showed a binding signal of 2.06 enrichment R.

The molecule B11 registered a binding signal of 0.996 enrichment R.

Molecule B12 displayed a binding signal of 1.54 enrichment R.

As for B13, the binding signal was found to be 0.846 enrichment R.

B14 came in with a binding signal of 0.517 enrichment R.

Molecule B15 came in with a binding signal of 0.856 enrichment R.

Consider B16, for which the binding signal worked out at 1.12 enrichment R.

On to B17, for which the binding signal was found to be 0.951 enrichment R.

For B18, the binding signal was found to be 1.29 enrichment R.

With B19, the binding signal is 0.919 enrichment R.

B20 returned a binding signal of 1.49 enrichment R.

For B21, the binding signal came to 0.868 enrichment R.

For the molecule B22, the binding signal was found to be 0.467 enrichment R.
